Source: the supplement of paper PMC4967469
IC50 is the fitted dose that halves viability relative to control wells, and lower means more sensitive; fits outside the tested doses are given as limits. AUC is the area under the same curve over the 256-fold range up to the top dose, as a fraction: 1 means no effect, lower means more sensitive. Where the top dose is marked as inferred, it was calculated from the reported fits.

Tests used:
Assay in all cases: Viability of human cancer cell lines after 72 h of drug (GDSC screen)
NG-25 = compound: CCN1CCN(Cc2ccc(NC(=O)c3ccc(C)c(Oc4ccnc5[nH]ccc45)c3)cc2C(F)(F)F)CC1 [NG-25]; details: top dose 10.24 µM; top dose inferred
Method: (§1)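 Human cancer cell lines in 384-well plates, medium with 10% serum, drug for 72 h over a 256-fold dose range (nine 2-fold or five 4-fold steps up to the top dose). Adherent lines were fixed and stained with the nucleic acid dye Syto60, suspension lines read with resazurin; signal relative to control wells, capped at 0 and 100%. One two-parameter sigmoid per drug and line, fitted in a mixed model over all curves with the slope shared within a line.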

GSK-1904529A = compound: CCc1cc(Nc2nccc(-c3c(-c4ccc(OC)c(C(=O)Nc5c(F)cccc5F)c4)nc4ccccn34)n2)c(OC)cc1N1CCC(N2CCN(S(C)(=O)=O)CC2)CC1 [GSK-1904529A]; details: top dose 1.024 µM; top dose inferred
Method: as §1

BMS-509744 = compound: COc1cc(C)c(Sc2cnc(NC(=O)c3ccc(CNC(C)C(C)(C)C)cc3)s2)cc1C(=O)N1CCN(C(C)=O)CC1 [BMS-509744]; details: top dose 10.24 µM; top dose inferred
Method: as §1

PFI-1 = compound: COc1ccccc1S(=O)(=O)Nc1ccc2c(c1)CN(C)C(=O)N2 [PFI-1]; details: top dose 10 µM; top dose inferred
Method: as §1

Tipifarnib = compound: Cn1cncc1[C@@](N)(c1ccc(Cl)cc1)c1ccc2c(c1)c(-c1cccc(Cl)c1)cc(=O)n2C [Tipifarnib]; details: top dose 16 µM; top dose inferred
Method: as §1

Row | Cell Line | AUC (NG-25) | IC50 (NG-25) | AUC (GSK-1904529A) | IC50 (GSK-1904529A) | AUC (BMS-509744) | IC50 (BMS-509744) | AUC (PFI-1) | IC50 (PFI-1) | AUC (Tipifarnib) | IC50 (Tipifarnib)
1 | MONO-MAC-6 (acute myeloid leukaemia, suspension) | 0.189 | 0.0702 µM | 0.967 | > 1.02 µM | 0.83 | 6.94 µM | 0.795 | 4.96 µM | 0.666 | 2.99 µM
2 | MPP-89 (mesothelioma, adherent) | 0.803 | 7.02 µM | 0.978 | > 1.02 µM | 0.878 | > 10.2 µM | 0.912 | > 10 µM | 0.835 | 15.4 µM
3 | MRK-nu-1 (breast, suspension) | 0.842 | 6.37 µM | 0.982 | > 1.02 µM | 0.862 | 7.64 µM | 0.989 | > 10 µM | 0.488 | 0.93 µM
4 | MS-1 (small cell lung carcinoma, suspension) | 0.841 | 6.04 µM | 0.979 | > 1.02 µM | 0.871 | 7.97 µM | 0.962 | > 10 µM | 0.807 | 7.2 µM
5 | MSTO-211H (mesothelioma, adherent) | 0.991 | > 10.2 µM | 0.991 | > 1.02 µM | 0.981 | > 10.2 µM | 0.958 | > 10 µM | 0.98 | > 16 µM
6 | MV-4-11 (leukaemia, suspension) | 0.375 | 0.31 µM | 0.982 | > 1.02 µM | 0.859 | 6.17 µM | 0.609 | 1.17 µM | 0.424 | 0.647 µM
7 | MZ1-PC (pancreas, adherent) | 0.625 | 1.54 µM | 0.978 | > 1.02 µM | 0.754 | 4.21 µM | 0.868 | > 10 µM | 0.638 | 2.64 µM
8 | MZ2-MEL (melanoma, adherent) | 0.846 | 9.44 µM | 0.96 | > 1.02 µM | 0.795 | 5.68 µM | 0.87 | > 10 µM | 0.584 | 1.76 µM
9 | MZ7-mel (melanoma, adherent) | 0.781 | 4.42 µM | 0.977 | > 1.02 µM | 0.868 | 9.87 µM | 0.875 | > 10 µM | 0.463 | 0.789 µM
10 | Mo-T (hairy cell leukaemia, suspension) | 0.924 | > 10.2 µM | 0.987 | > 1.02 µM | 0.986 | > 10.2 µM | 0.873 | 9.98 µM | 0.938 | > 16 µM
11 | NALM-6 (B-cell leukaemia, suspension) | 0.529 | 0.756 µM | 0.977 | > 1.02 µM | 0.848 | 5.82 µM | 0.861 | 6.33 µM | 0.15 | 0.108 µM
12 | NAMALWA (Burkitt lymphoma, suspension) | 0.584 | 1.04 µM | 0.991 | > 1.02 µM | 0.894 | 8.88 µM | 0.81 | 4.26 µM | 0.802 | 6.46 µM
13 | NB1 (neuroblastoma, semi-adherent) | 0.752 | 3.71 µM | 0.975 | > 1.02 µM | 0.914 | > 10.2 µM | 0.945 | > 10 µM | 0.873 | > 16 µM
14 | NB5 (neuroblastoma, adherent) | 0.825 | 6.26 µM | 0.985 | > 1.02 µM | 0.931 | > 10.2 µM | 0.904 | > 10 µM | 0.943 | > 16 µM
15 | NB6 (neuroblastoma, adherent) | 0.852 | > 10.2 µM | 0.984 | > 1.02 µM | 0.94 | > 10.2 µM | 0.909 | > 10 µM | 0.845 | 15.7 µM
16 | NB7 (neuroblastoma, adherent) | 0.842 | 7.64 µM | 0.986 | > 1.02 µM | 0.94 | > 10.2 µM | 0.778 | 4.25 µM | 0.344 | 0.362 µM
17 | NB10 (neuroblastoma, adherent) | 0.838 | 6.65 µM | 0.985 | > 1.02 µM | 0.987 | > 10.2 µM | 0.876 | 9.52 µM | 0.674 | 3.01 µM
18 | NB13 (neuroblastoma, adherent) | 0.786 | 3.9 µM | 0.982 | > 1.02 µM | 0.916 | > 10.2 µM | 0.92 | > 10 µM | 0.705 | 3.49 µM
19 | NB14 (neuroblastoma, adherent) | 0.798 | 4.54 µM | 0.986 | > 1.02 µM | 0.948 | > 10.2 µM | 0.938 | > 10 µM | 0.878 | 14.6 µM
20 | NB69 (neuroblastoma, adherent) | 0.806 | 4.51 µM | 0.988 | > 1.02 µM | 0.814 | 4.81 µM | 0.667 | 1.72 µM | 0.916 | > 16 µM

Row | Cell Line | AUC (NG-25) | IC50 (NG-25) | AUC (GSK-1904529A) | IC50 (GSK-1904529A) | AUC (BMS-509744) | IC50 (BMS-509744) | AUC (PFI-1) | IC50 (PFI-1) | AUC (Tipifarnib) | IC50 (Tipifarnib)
21 | NB(TU)1-10 (neuroblastoma, adherent) | 0.811 | 4.56 µM | 0.966 | > 1.02 µM | 0.896 | 9.57 µM | 0.993 | > 10 µM | 0.669 | 2.75 µM
22 | NB-4 (acute myeloid leukaemia, suspension) | 0.73 | 2.48 µM | 0.985 | > 1.02 µM | 0.988 | > 10.2 µM | 0.663 | 1.61 µM | 0.158 | 0.119 µM
23 | NCI-H23 (lung adenocarcinoma, adherent) | 0.937 | > 10.2 µM | 0.988 | > 1.02 µM | 0.957 | > 10.2 µM | 0.874 | 9.57 µM | 0.981 | > 16 µM
24 | NCI-H69 (small cell lung carcinoma, suspension) | 0.985 | > 10.2 µM | 0.981 | > 1.02 µM | 0.955 | > 10.2 µM | 0.887 | > 10 µM | 0.932 | > 16 µM
25 | NCI-H82 (small cell lung carcinoma, suspension) | 0.929 | > 10.2 µM | 0.988 | > 1.02 µM | 0.941 | > 10.2 µM | 0.98 | > 10 µM | 0.835 | 9.73 µM
26 | NCI-H187 (small cell lung carcinoma, suspension) | 0.961 | > 10.2 µM | 0.984 | > 1.02 µM | 0.878 | > 10.2 µM | 0.986 | > 10 µM | 0.975 | > 16 µM
27 | NCI-H209 (small cell lung carcinoma, suspension) | 0.885 | > 10.2 µM | 0.975 | > 1.02 µM | 0.978 | > 10.2 µM | 0.918 | > 10 µM | 0.817 | 9.75 µM
28 | NCI-H211 (small cell lung carcinoma, adherent) | 0.848 | 7.28 µM | 0.985 | > 1.02 µM | 0.906 | > 10.2 µM | 0.867 | 8.6 µM | 0.563 | 1.48 µM
29 | NCI-H226 (lung squamous cell carcinoma, adherent) | 0.91 | > 10.2 µM | 0.986 | > 1.02 µM | 0.96 | > 10.2 µM | 0.88 | > 10 µM | 0.829 | 10.7 µM
30 | NCI-H322M (lung adenocarcinoma, suspension) | 0.865 | > 10.2 µM | 0.986 | > 1.02 µM | 0.935 | > 10.2 µM | 0.973 | > 10 µM | 0.987 | > 16 µM
31 | NCI-H345 (small cell lung carcinoma, suspension) | 0.988 | > 10.2 µM | 0.99 | > 1.02 µM | 0.926 | > 10.2 µM | 0.974 | > 10 µM | 0.979 | > 16 µM
32 | NCI-H446 (small cell lung carcinoma, semi-adherent) | 0.78 | 4.53 µM | 0.986 | > 1.02 µM | 0.929 | > 10.2 µM | 0.762 | 3.82 µM | 0.961 | > 16 µM
33 | NCI-H524 (small cell lung carcinoma, suspension) | 0.991 | > 10.2 µM | 0.991 | > 1.02 µM | 0.953 | > 10.2 µM | 0.93 | > 10 µM | 0.95 | > 16 µM
34 | NCI-H526 (small cell lung carcinoma, suspension) | 0.933 | > 10.2 µM | 0.99 | > 1.02 µM | 0.949 | > 10.2 µM | 0.98 | > 10 µM | 0.863 | 12.9 µM
35 | NCI-H716 (large intestine, suspension) | 0.527 | 0.775 µM | 0.981 | > 1.02 µM | 0.943 | > 10.2 µM | 0.794 | 5.97 µM | 0.938 | > 16 µM
36 | NCI-H720 (lung carcinoid, suspension) | 0.989 | > 10.2 µM | 0.992 | > 1.02 µM | 0.986 | > 10.2 µM | 0.945 | > 10 µM | 0.991 | > 16 µM
37 | NCI-H747 (large intestine, adherent) | 0.826 | 8.1 µM | 0.979 | > 1.02 µM | 0.765 | 4.56 µM | 0.863 | > 10 µM | 0.557 | 1.48 µM
38 | NCI-H847 (small cell lung carcinoma, adherent) | 0.835 | 5.02 µM | 0.973 | > 1.02 µM | 0.953 | > 10.2 µM | 0.836 | 4.93 µM | 0.073 | < 0.0625 µM
39 | NCI-H1092 (small cell lung carcinoma, suspension) | 0.928 | > 10.2 µM | 0.962 | > 1.02 µM | 0.941 | > 10.2 µM | 0.986 | > 10 µM | 0.906 | > 16 µM
